Measured values from PubChem BioAssay AID1508623 (National Center for Advancing Translational Sciences (NCATS), 2021).
Among all 48,000 compounds or so, about 450 (0.94%) were called active. Not shown: some 19% with an inconclusive outcome. Calls come from the whole dose curve; as a rule, active = well fitted inhibition curve with a large enough effect; inconclusive = small, poorly fitted or top-dose-only effect; inactive = no such curve, though single readings can be large or run the other way. The list shows a part of the results.

Experiment: Primary qHTS for Identification of Small Molecule Inhibitors of Huntingtin Promoter Activity; note: nearly all actives have a fitted effect of over 50% in size
Details: HEK293 HTT promoter firefly luciferase reporter (activity 0% = vehicle and -100% = no light), 24 h; series mostly up to 57.5 µM; activity change, negative = inhibition: at the top concentration
Procedure, shortened: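 Luminescence was read after Dual-Glo reagent and a 10 min room-temperature incubation. Values were normalized to vehicle (0% activity) and zero RLU (-100% activity). Reporter HEK293 cells had been exposed to compounds (up to 57.5 uM final) for 24 h.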

Activity change, negative = inhibition, inactive:
CCCCOc1ccc(C(=O)NCC2(N3CCN(C)CC3)CCCCC2)cc1 -6.39%, O=C(Nc1nnc(S(=O)(=O)N2CCOCC2)s1)c1cccc(F)c1 22.8%, CC(=O)c1cccc(NC(=O)C(Cc2ccccc2)NS(=O)(=O)c2ccc(Br)s2)c1 (stereo not given) -4.51%, O=C(Nc1ccc(Cl)cc1)N1CCC(CN2CCCC2)CC1 -15.1%, Cc1ccc2c(c1)C(c1ccccc1)N(C(=O)c1ccc(OC(C)C)cc1)CC(=O)N2 (stereo not given) -15.9%, Cc1c2cnn(-c3ccccc3)c(=O)c2c(C)n1CC(=O)NCc1ccccc1Br -16.8%, Cc1cccc(CCNC(=O)Cn2ncc3c(=O)oc4ccccc4c32)c1 -4.78%, COc1ccc(Cn2cc(C(=O)c3ccc(OC)cc3)c(=O)c3cc4c(cc32)OCCO4)cc1 -1.24%, CCC(=O)O[C@]1(C(=O)CO)CC[C@H]2[C@@H]3CCC4=CC(=O)CC[C@]4(C)[C@@H]3CC[C@@]21C 13%, COc1ccc(OC)c(NC(=O)c2cn3c4c(ccc(Cl)c4c2=O)OC(C)C3)c1 (stereo not given) -8.59%, COc1c(Cl)cc(Cl)cc1/C=C(\C#N)c1nc2ccccc2[nH]1 2.39%, CCN(CCCNC(=O)c1nn(-c2ccc(C)cc2)c(=O)c2c1c1ccccc1n2C)c1ccccc1 -8.22%, Cc1ccc(C)c(N2CCN(C(=O)CCCn3ncn4c(cc5occc54)c3=O)CC2)c1 -33.5%, COc1cccc(CNC(=O)CCS(=O)(=O)c2cc3c(cc2C)NC(=O)CO3)c1 -5.86%, CCc1ccc(-n2c(=O)c3c(C)c(C(=O)N(C)C)sc3n(Cc3cccc(C)c3)c2=O)cc1 1.33%, CCOc1ccc(CNC(=O)CCn2nc(C)c3c(C)n(-c4ccccc4)nc3c2=O)cc1 -10.9%, CN(C)c1ccc(CNC(=O)CCCN2C(=O)CCn3nc(-c4cccn4C)cc32)cc1 0.166%, Cc1ccc(-n2c(=O)c3c4c(sc3n(Cc3ccccc3F)c2=O)CCC4)cc1C -12.4%, Cc1nc(-c2ccc(Cl)cc2)sc1CCNC(=O)c1ccco1 10.5%, COc1cc(-c2nc3sccn3c2Nc2cccc(C)c2)ccc1O 13.9%, Cc1ccc(O)c(-c2ccnc3cc(-c4ccc(Cl)cc4)nn23)c1 -12.1%, Cc1coc2cc3oc(=O)c(CC(=O)NCc4ccc(F)cc4)c(C)c3cc12 -9.77%, COc1ccccc1OCCCn1c(C2CC(=O)N(c3ccccc3Cl)C2)nc2ccccc21 (stereo not given) -12.4%, Cc1ccc(Cn2c(=O)n(Cc3nc(-c4ccccc4)no3)c(=O)c3cc4c(cc32)OCO4)cc1 -4.55%, CC(=O)c1cccc(NC(=O)CCc2c(C)nc3c(-c4ccc(F)cc4)c(C)nn3c2C)c1 -19.3%, O=C(Nc1ccccc1)N1CCN(C(=O)c2nsc3ccccc23)CC1 -12.7%, CCCc1nc2sc3c(N4CCCCC4)ncnc3c2c2c1CCCC2 -11.7%, COc1ccc(OC)c(NC(=O)Cn2cc(S(=O)(=O)c3ccccc3)c(=O)c3cc(C)ccc32)c1 -10%, Cc1ccc(CCNC(=O)CCn2c(=O)c3cccn3c3ccc(F)cc32)cc1 -8.81%, Fc1cccc(F)c1-c1nc(-c2ccncc2)no1 52.3%, O=C(CCn1c(=O)c2cccn2c2ccc(F)cc21)NCc1ccccc1F -12%, Cc1ccc(NC(=O)CSc2nc(-c3ccc(F)cc3)cc(C(F)(F)F)c2C#N)cc1 -18.8%, Cc1cccc(NC(=O)Cn2c(=O)n(Cc3ccc(C(=O)NCc4ccc5c(c4)OCO5)cc3)c(=O)c3ccccc32)c1 -8.03%, CCNC(=O)CC1C(=O)N(c2ccccc2)C(=O)N1Cc1ccc(F)cc1 (stereo not given) -8.05%, COc1ccc(NC(=O)Cn2c(=O)oc3cc(S(=O)(=O)NC(C)C)ccc32)cc1OC -18.6%, Cc1ccccc1Cn1c(CCCNC(=O)C2CCCCC2)nc2ccccc21 -28%, Cc1ccccc1Cn1c(SCc2ccc(C(=O)NCc3cccs3)cc2)nc2ccncc21 -21.6%, Cc1cccc(OCc2nnc(SCC(=O)Nc3ccc(C)cc3C)o2)c1 -9.15%, COc1ccccc1N1CCN(S(=O)(=O)c2ccc3c(c2)oc(=O)n3C)CC1 -9.57%, Cc1nnc(N2CCC(C(=O)NC(C)C)CC2)c2nn(-c3ccc(Cl)cc3)c(C)c12 -2.54%, CCN(CCCNC(=O)c1cc2c(=O)[nH]c3ccccc3c2s1)c1ccccc1 -13.5%, CCC1CCCCN1S(=O)(=O)c1ccc(NC(=O)c2cc(=O)c3ccccc3o2)cc1 (stereo not given) -34.4%, O=S(=O)(c1ccc(-n2cnnn2)cc1)N1CCN(c2ccccc2F)CC1 -12.9%, O=C(Nc1nc(-c2ccc(Br)cc2)ns1)c1ccc(F)cc1 -6.7%, CC(=O)c1cccc(NC(=O)Cn2c(SCC(=O)Nc3ccc(F)cc3)nc3ccccc32)c1 -31.6%, CCOc1ccc(-n2c(C)nc3c(cnn3-c3ccc(C)cc3)c2=O)cc1 -18.1%, COc1ccc(-c2c(C#N)c(SCC(=O)Nc3ccccc3C)nc(C)c2C(=O)Nc2ccccc2)cc1OC -19.9%, COCCCNC(=O)CSc1nc(-c2cccc(F)c2)[nH]c1-c1ccccc1 -23.2%, O=C(CN1CCN(Cc2ccccc2Cl)C1=O)NCc1ccccc1Cl -10.9%, Cn1cc(S(=O)(=O)c2ccccc2)c(=O)c2cc(F)c(N3CCOCC3)cc21 -9.71%, N#C/C(=C\c1ccc(Cl)cc1)C(=O)NCC1CCCO1 (stereo not given) 9.29%, CC(COc1ccccc1)NC(C)C(O)c1ccc(O)cc1 (stereo not given) 5.67%, CCc1cnc2c(c1SCC(=O)Nc1ccc(Cl)cc1)c(=O)n(C)c(=O)n2C -18.5%, CCOc1ccc(NC(=O)Cc2coc3ccc(C)cc23)cc1 -11.5%, COc1ccc(-c2cc(C(F)F)n3ncc(C(=O)Nc4cc(OC)ccc4OC)c3n2)cc1 -0.794%, COc1ccccc1NC(=O)CSc1ccc(-c2sc(C)nc2C)nn1 -11.8%, CCC(Nc1ccc(-c2nc(-c3ccco3)no2)cc1[N+](=O)[O-])c1ccccc1 (stereo not given) -8.47%, Cc1cccc(-c2nc(CCNC(=O)Cc3ccc(F)cc3)cs2)c1 -21%, COc1ccc(C2c3cccn3CCN2S(=O)(=O)c2ccccc2[N+](=O)[O-])cc1OC (stereo not given) -17.9%, O=C(NCC(c1ccc2c(c1)OCO2)N1CCOCC1)c1ccccc1F (stereo not given) 23.2%, CCc1ccc2occ(CC(=O)Nc3c(C(=O)Nc4ccc(OC)cc4)oc4ccccc34)c2c1 3%, O=C(NCc1ccccc1)c1nnc(Cc2cccc(F)c2)o1 -7.02%, Cc1cccn2cc(-c3cccc(NS(=O)(=O)c4ccc(Cl)c(Cl)c4)c3)nc12 -7.93%, CC(C)(C)c1ccc(C(O)CCCN2CCC(C(O)(c3ccccc3)c3ccccc3)CC2)cc1 (stereo not given) 8.49%, Cc1ccc2nc(Cl)c3cc(C(=O)N(C)C4CCCCC4)sc3c2c1 -4.35%, CCn1c(CNC(=O)c2ccc(OC)cc2)nnc1SCC(=O)Nc1cccc(C)c1C -1.88%, COc1cccc(Cn2c(=O)n(-c3cccc(Cl)c3C)c(=O)c3c4c(sc32)CN(C(C)=O)CC4)c1 -9.42%, CCOC(=O)c1c(C)oc2nc(C)nc(NCC3CCN(Cc4cccc(C)c4)CC3)c12 -3.45%, CCOc1ccc(-n2cc(-c3ccccc3)c3c(NC4CCCCC4)ncnc32)cc1 -9.59%, Cc1nn(-c2ccccc2)c(OC(=O)c2ccccc2Cl)c1S(=O)(=O)c1ccccc1 1.19%, COc1ccc2c(c1)c1c(c(=O)n(-c3cccc(Cl)c3)c(=O)n1CC(=O)NCC1CCCO1)n2C (stereo not given) -3.17%, CCOc1ccc(NC(=O)CSC2=Nc3ccccc3C3=NC(CCC(=O)NCc4cccs4)C(=O)N23)cc1 (stereo not given) -0.976%, CCOc1ccc(-c2nnc(SCC(=O)NCc3ccc(C)cc3)nc2-c2ccc(OCC)c(OC)c2)cc1OC -17.9%, COCCNC(=O)Cn1cnc2sc(C)c(S(=O)(=O)N3CCN(c4ccccc4OC)CC3)c2c1=O -4.59%, CCc1nn2c(=O)cc(COC(=O)c3ccccc3NC(=O)COc3ccc(F)cc3)nc2s1 -4%, CCOC(=O)c1[nH]c(C)c(CCC(=O)Nc2cccc(C(F)(F)F)c2)c1C -19.7%, COc1cc(CNCCSc2nnnn2C)ccc1OCc1ccc(F)cc1 -2.13%, CC(CNC(=O)c1nnc(Cc2cccc(F)c2)o1)c1ccccc1 (stereo not given) -22.3%, COc1ccc(N2CC(NC(=O)C3CC3)CC2=O)cc1 (stereo not given) -10.5%, CCC(NC(=O)Nc1ccc(OC)c(OC)c1)c1c(-n2cccc2)sc2c1CCN(C)C2 (stereo not given) -13.4%, CC(=O)c1cccc(NC(=O)[C@H](Cc2ccccc2)N2Cc3ccccc3C2=O)c1 -3.65%, O=c1oc2ccc3ccccc3c2cc1-c1nnc(Nc2ccc(Cl)cc2Cl)s1 -2.04%, CCc1ccc(NC(=O)Cn2c(=O)c(CNc3ccccc3)cc3cc(OC)c(OC)cc32)cc1 1.7%, Cc1cccc(NC(=O)C2CCCN(S(=O)(=O)c3c(C)[nH]c(=O)[nH]c3=O)C2)c1C (stereo not given) -15.2%, COc1ccc(-c2nc3ccccc3o2)cc1NC(=O)C(C)(C)Oc1ccc(Br)cc1 -16.4%, COc1cccc(N2CCN(C(=O)CCS(=O)(=O)c3ccc4c(c3)CC(=O)N4C)CC2)c1 -14.8%, O=C(Cn1c(=O)oc2cc(S(=O)(=O)N3CCCC3)ccc21)NCc1ccc(Cl)cc1 -29.2%, CCN(CC)C(=O)Cn1c(=O)n(Cc2ccc(C(=O)NCc3ccc(C)cc3)cc2)c(=O)c2ccccc21 -7.34%, Cc1ccc(NC(=O)c2cn3c4c(ccc(Cl)c4c2=O)OC(C)C3)cc1C (stereo not given) 0.393%, CCOCCCNC(=O)c1cc2c(=O)n(C)c3ccccc3c2n1C -6.55%, O=C(C1CCC(CNS(=O)(=O)c2ccc(Br)s2)CC1)N1CCN(c2ccccc2Cl)CC1 (stereo not given) -21.5%, CCOc1cc2sc(N3CCC(C(=O)Nc4ccccc4C(=O)OC)CC3)nc2cc1Br 25.5%, CCOC(=O)c1sc(NC(=O)C(C)Oc2ccc(OC)cc2)c(C(=O)OCC)c1C (stereo not given) 3.44%, COc1ccc(C(=O)Nc2cc(-c3ccccc3)nn2-c2ccccc2)cc1 -25%, CCOC(=O)c1cccc(NC(=O)c2cc3cc4cc(OC)ccc4nc3s2)c1 7.68%
